From a collection of fitness landscapes (doi:10.1038/s41467-024-54723-y)
Over roughly 18,000 sequences, “TetR repression strength (sort-seq, GFP reporter)” has its median near 0.23; the highest 2% begin near 0.68. This is one part of the list.

Molecular target: TetR (class B, Tn10) (UniProt P04483)
Experiment: TetR repression strength (sort-seq, GFP reporter) (relative to tetO2 = 1); higher = stronger repression
Details: E. coli
In short: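 Three independent transformations of E. coli SIG10-MAX were made with a low-copy plasmid library randomizing eight operator positions between a constitutive promoter and sfGFP, with constitutive TetR. Following 5 h at 37 °C in LB plus 50 µg/mL chloramphenicol, 10^6 cells went through FACS into 13 fluorescence bins, and each bin was sequenced by Illumina. Repression strength was defined as the top bin index plus one minus the read-weighted mean bin, divided by the unaltered operator's value. Averages included only members reaching ≥30 reads in all replicates with a CV ≤0.5.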

Chain of UniProt P04483 (P04483 whole entry): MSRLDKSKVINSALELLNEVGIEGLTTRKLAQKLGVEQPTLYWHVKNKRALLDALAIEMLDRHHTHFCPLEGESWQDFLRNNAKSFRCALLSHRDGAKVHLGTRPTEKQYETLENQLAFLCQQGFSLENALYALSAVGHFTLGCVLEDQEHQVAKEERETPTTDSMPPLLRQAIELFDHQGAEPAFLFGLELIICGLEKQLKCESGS

Sequence	TetR repression strength
TCCCGGGTAGTGCCCGAGA	0.197
TCCCGGCAAGTTGTCGAGA	0.286
TCCCGCCGAGTAGAGGAGA	0.342
TCCCGTGCAGTTGGAGAGA	0.223
TCCCGTGGAGTTTGAGAGA	0.172
TCCCGGCGAGTGGAGGAGA	0.311
TCCCCATGAGTATATGAGA	0.318
TCCCGCCTAGTATCCGAGA	0.608
TCCCGGGTAGTGATAGAGA	0.431
TCCCAATAAGTGAATGAGA	0.403
TCCCGAACAGTGATTGAGA	0.506
TCCCCAGCAGTGACAGAGA	0.211
TCCCAAATAGTTCATGAGA	0.235
TCCCGGTTAGTCTATGAGA	0.375
TCCCCGCTAGTGGTGGAGA	0.0215
TCCCACTAAGTTGAGGAGA	0.161
TCCCGTTGAGTGGATGAGA	0.196
TCCCAAAAAGTCATTGAGA	0.279
TCCCAGGCAGTAGCAGAGA	0.355
TCCCTCTGAGTGCTCGAGA	0.315
TCCCTTGCAGTTTTAGAGA	0.26
TCCCAAGAAGTGTGTGAGA	0.282
TCCCCTCCAGTCGTTGAGA	0.49
TCCCCGATAGTCGCGGAGA	0.09
TCCCCTTTAGTTAGCGAGA	0.129
TCCCAGACAGTTAATGAGA	0.607

Sequence	TetR repression strength
TCCCGCTGAGTGCTGGAGA	0.159
TCCCCACAAGTCTGGGAGA	0.165
TCCCATGAAGTTCTTGAGA	0.166
TCCCAATTAGTGATGGAGA	0.347
TCCCTTGCAGTTAACGAGA	0.104
TCCCGCTGAGTGCCAGAGA	0.341
TCCCATCAAGTGTGAGAGA	0.215
TCCCCCGAAGTGTAGGAGA	0.209
TCCCGGCCAGTAACTGAGA	0.165
TCCCTGCGAGTCGGTGAGA	0.245
TCCCGGTCAGTGAGCGAGA	0.426
TCCCGTTGAGTAGTGGAGA	0.239
TCCCTTGGAGTTCCCGAGA	0.562
TCCCCCATAGTTAGGGAGA	0
TCCCGGGTAGTGTGCGAGA	0.268
TCCCAACCAGTATCGGAGA	0.0726
TCCCGTTTAGTCTTTGAGA	0.58
TCCCATTCAGTCTTGGAGA	0.254
TCCCTTGGAGTTGTCGAGA	0.144
TCCCGTAGAGTGCGGGAGA	0.056
TCCCAATTAGTCCACGAGA	0.346
TCCCGTATAGTCAGTGAGA	0.346
TCCCCAGTAGTGCCGGAGA	0.264
TCCCGTTAAGTCTGTGAGA	0.277
TCCCTGACAGTGACTGAGA	0.49
TCCCGTAGAGTCTTAGAGA	0.128

Sequence	TetR repression strength
TCCCATGTAGTGGCCGAGA	0.26
TCCCGGAGAGTCGGAGAGA	0.187
TCCCATAGAGTGGTCGAGA	0.339
TCCCCGTCAGTCGGTGAGA	0.138
TCCCGGGTAGTTTCAGAGA	0.146
TCCCCGTTAGTGCAAGAGA	0.423
TCCCTTGCAGTGAGAGAGA	0.61
TCCCCGAAAGTTTCTGAGA	0.0126
TCCCATCAAGTATATGAGA	0.104
TCCCCGCCAGTGGAAGAGA	0.215
TCCCAGACAGTCATCGAGA	0.368
TCCCTTGTAGTTGGGGAGA	0.136
TCCCAGAGAGTCGGTGAGA	0.326
TCCCTCGTAGTGTATGAGA	0.0896
TCCCTATTAGTTGGGGAGA	0.483
TCCCGTTTAGTCGTCGAGA	0.447
TCCCTCGAAGTGAGAGAGA	0.208
TCCCAATGAGTTCAAGAGA	0.361
TCCCGCAGAGTGATAGAGA	0.521
TCCCGGCCAGTAGAGGAGA	0.0618
TCCCGCTGAGTGTGGGAGA	0.102
TCCCTAGAAGTTGCGGAGA	1.2
TCCCCGCCAGTAAAAGAGA	0.389
TCCCCTAAAGTAGGCGAGA	0.0467
TCCCGACAAGTGTTCGAGA	0.297
TCCCTGCGAGTGTGTGAGA	0.254

Sequence	TetR repression strength
TCCCTGTTAGTCAGGGAGA	0.0638
TCCCGCATAGTGCTGGAGA	0.0999
TCCCAGCGAGTAACGGAGA	0.104
TCCCAAGAAGTGATAGAGA	0.393
TCCCATATAGTCAGGGAGA	0.345
TCCCGCCTAGTCTCGGAGA	0
TCCCGAGTAGTGAAGGAGA	0.436
TCCCTATAAGTAGGAGAGA	0.228
TCCCGGGAAGTGCAAGAGA	0.563
TCCCCTGAAGTGCGGGAGA	0.155
TCCCTGTTAGTTACGGAGA	0.193
TCCCTGTAAGTTGCAGAGA	0.0925
TCCCTCGAAGTCCTTGAGA	0.279
TCCCATCGAGTAAAGGAGA	0.0791
TCCCGACAAGTATATGAGA	0.24
TCCCGCGTAGTGCCAGAGA	0.163
TCCCGGCAAGTACTGGAGA	0.115
TCCCTAGGAGTAATTGAGA	0.272
TCCCTCTCAGTCTGTGAGA	0.376
TCCCGAGAAGTAACTGAGA	0.172
TCCCCGGTAGTACGAGAGA	0.196
TCCCAATGAGTGCAAGAGA	0.309
TCCCACTCAGTTGGCGAGA	0.169
TCCCAGCCAGTGGCCGAGA	0.17
